This passage reports z-score results from PubChem BioAssay AID488969 (Vanderbilt High Throughput Screening Facility, 2010).

Over roughly 110,000 compounds, “z-score” has its median near -0.1; the highest 2% begin near 2. This is one part of the list.

This assay has as its target Metabotropic glutamate receptor 8 (Rattus norvegicus) (UniProt P70579). Kind of assay: rat mGluR8 modulators via GIRK flux, primary screen, cell-based, thallium flux, HTS (AID 488969). The following applies: HEK293 rat mGluR8, GIRK (G protein-gated inwardly rectifying potassium channel) thallium flux, FluoZin2; at 10 µM; stronger effect = higher value; submaximal glutamate (EC20) added with thallium.
UniProt P70579, sequence (P70579 whole entry, looked up): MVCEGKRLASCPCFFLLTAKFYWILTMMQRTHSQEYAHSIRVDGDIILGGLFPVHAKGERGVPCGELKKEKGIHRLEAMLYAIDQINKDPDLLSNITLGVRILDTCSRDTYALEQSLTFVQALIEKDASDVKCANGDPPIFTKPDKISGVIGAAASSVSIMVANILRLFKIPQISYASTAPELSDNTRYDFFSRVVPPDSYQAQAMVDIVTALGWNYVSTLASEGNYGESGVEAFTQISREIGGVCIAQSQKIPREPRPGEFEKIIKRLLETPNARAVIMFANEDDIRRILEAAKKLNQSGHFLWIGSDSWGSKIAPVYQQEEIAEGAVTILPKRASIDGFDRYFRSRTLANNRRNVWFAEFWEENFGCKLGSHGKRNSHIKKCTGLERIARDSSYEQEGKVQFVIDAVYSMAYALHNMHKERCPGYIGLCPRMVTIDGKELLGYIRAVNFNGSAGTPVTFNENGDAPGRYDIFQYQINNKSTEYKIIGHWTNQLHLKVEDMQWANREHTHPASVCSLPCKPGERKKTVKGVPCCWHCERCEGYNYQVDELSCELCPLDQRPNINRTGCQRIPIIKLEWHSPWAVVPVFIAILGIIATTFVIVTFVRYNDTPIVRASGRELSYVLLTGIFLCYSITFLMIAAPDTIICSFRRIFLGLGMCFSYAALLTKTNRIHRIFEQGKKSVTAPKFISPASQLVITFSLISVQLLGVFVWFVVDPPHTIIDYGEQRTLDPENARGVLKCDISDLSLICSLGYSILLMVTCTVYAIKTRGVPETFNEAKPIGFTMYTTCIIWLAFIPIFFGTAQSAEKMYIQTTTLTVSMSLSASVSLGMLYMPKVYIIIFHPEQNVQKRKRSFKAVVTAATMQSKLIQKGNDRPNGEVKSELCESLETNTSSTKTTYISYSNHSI
On to `O=C(NCN1CCN(CCO)CC1)c1cnccn1`, for which the z-score was -0.0242.

Compound `C=CCn1c(Cc2csc(N)n2)nnc1SCC(=O)OCC` gave a z-score of 0.666.

On to `COc1cccc(CC(NC(C)=O)C(=O)NC2CCN(S(=O)(=O)c3ccc4ccccc4c3)CC2)c1` (centres undefined), for which the z-score was -0.102.

Consider `CCCCNC(=O)C(C#N)c1nc2ccccc2nc1N1CCN(c2ccccc2F)CC1` (centres undefined), for which the z-score was 0.299.

Turning to `COc1ccc(OC)c(C(=O)c2coc3ccc(OC)cc23)c1`, the z-score was -0.303.

`CC(C)Sc1nc2ccccc2n1CC(N)=O` gave a z-score of 0.432.

`Cc1nc2ccc(C(=O)N3CCSCC3)cc2s1`: the z-score was 0.882.

On to `CCNc1ccc(S(N)(=O)=O)cc1[N+](=O)[O-]`, for which the z-score was -0.06.

As for `O=C1c2ccccc2C(Nc2ccc(S(=O)(=O)N3CCCCC3)cc2)N1c1ccccn1` (centres undefined), the z-score is -0.00712.

In turn, `C#CCNc1c(C)c(C)nc2ncnn12` came in with a z-score of 0.697.

Consider `CN(C)CCOC(=O)C12CC3(C)CC(C)(CC(C)(C3)C1)C2`, for which the z-score was determined as 1.1.

The compound `O=c1[nH]c2ccccc2n1Cc1ccccc1` came in with a z-score of 0.106.

`Cc1c(C#N)c(N)nc2c3c(sc12)NC(=O)CC3c1ccc(F)cc1` (centres undefined) yielded a z-score of 0.762.

As for `O=C(OCCN1C(=O)c2cccc3c(N4CCOCC4)ccc(c23)C1=O)c1ccccc1Cl`, the z-score was -0.723.

Regarding `COc1ccc(C(C[N+](=O)[O-])c2c(-c3ccccc3)cc3ccccn23)c(OC)c1` (centres undefined), the z-score was -0.493.

As for `O=C(Nc1ccc(-c2csc(-c3ccccc3)n2)cc1)c1ccccc1`, the z-score was -0.0473.

Regarding `OCCNCC1(O)C2CC3CC(C2)CC1C3` (centres undefined), the z-score stood at 0.157.

Take `COc1ccc(CN2CCN(C(=O)CC(C)C)CC2)c(OC)c1OC`: the z-score was -0.112.

As to `Cn1nnnc1SCC(=O)Nc1ccc(Oc2ccc(Cl)cc2)cc1`, the z-score was -0.515.

Regarding `COc1ccc(S(=O)(=O)NCCSCc2ccco2)cc1Cl`, the z-score was -0.151.

For the compound `CC(C)(C)NC(=O)C(=O)NCCC1=CCCCC1`, the z-score was -0.42.

For the compound `S=c1[nH]nc(-c2ccccc2)n1/N=C/c1c[nH]c2ccccc12`, the z-score was -0.681.

With `CC1(C)CCc2nc(SCc3ccccc3)c(C#N)cc2C1`, the z-score worked out at 0.224.

Compound `COc1nc(NC(C)=O)nc(C)c1Br` yielded a z-score of 0.00324.

For the compound `O=C(NC(C(=O)c1ccccc1)n1c(=O)cc[nH]c1=S)c1ccccc1` (centres undefined), the z-score is -0.361.

For `CC(c1ccco1)N(C(=O)c1ccc(Cl)s1)c1ccccn1` (centres undefined), the z-score was found to be 0.635.

`C/C(CC1CC(C)(C)OC1=O)=N/Nc1nc(-c2ccccc2)cs1` (centres undefined) had a z-score of 0.992.

On to `Cc1ccc(S(=O)(=O)N2CCN(C(=O)N3CCOCC3)C2C)cc1` (centres undefined), for which the z-score came out at 0.328.

For `COc1ccccc1NC(=O)c1ccc(S(=O)(=O)N(C)C)cc1`, the z-score is -0.403.

`CC1CCN(C(=O)c2ccc(CSc3ccc(Cl)cc3)cc2)CC1`: the z-score was found to be 0.015.

As to `Cc1cc(C)cc(OCC(=O)Nc2ccc(F)cc2)c1`, the z-score was -0.191.

As for `Cc1ccc2c(c1)nnn2C1CCN(S(=O)(=O)c2ccc3ccccc3c2)CC1`, the z-score is -0.698.

Take `CC(C)CNC(C(=O)Nc1ccc([N+](=O)[O-])cc1Br)c1ccccc1` (centres undefined): the z-score is -0.337.

On to `CCOc1ccc(CC(=O)OCN2C(=O)c3ccccc3C2=O)cc1`, for which the z-score was -0.211.

With `Cc1c(C(=O)Nc2nc3ccccc3[nH]2)oc2ccc(Br)cc12`, the z-score was -0.0784.

As to `COc1ccc(-n2c(SCC(=O)Nc3cc(C)on3)nc3c(c2=O)SCC3)cc1`, the z-score is -0.275.

With `CCCc1cc(=O)[nH]c(SCC(=O)c2c(N)n(C)c(=O)n(C)c2=O)n1`, the z-score was -1.04.

In the case of `Cc1ccc(/C=N/n2c(C)nnc2C)o1`, the z-score was -0.158.

In the case of `CCc1ccccc1N1C(=O)c2ccccc2S1(=O)=O`, the z-score is -0.409.

As for `Cc1noc(C)c1C(=O)Nc1sc2c(c1C(N)=O)CCC2`, the z-score is -0.0007.

As to `CCOC(=O)C1CCN(S(=O)(=O)c2ccc(OC)c(OC)c2)CC1`, the z-score was -0.335.

With `O=C(OC1CCOC1=O)c1cccc(S(=O)(=O)Nc2cccc(Cl)c2)c1` (centres undefined), the z-score is -0.013.

`O=C(Nc1ccc(F)cc1F)N1CCN(C/C=C/c2ccccc2)CC1`: the z-score stood at 0.319.

As for `COC(=O)c1cc(NC(=O)CN(c2ccccc2OC)S(=O)(=O)c2ccccc2)ccc1Cl`, the z-score is -0.231.

Turning to `CC(C)[C@H](NC(=O)OC(C)(C)C)C(=O)N/N=C/c1cccc2nccnc12`, the z-score is -0.141.

In turn, `Cc1cc(OCC(F)(F)C(F)(F)C(F)(F)C(F)(F)C(F)(F)C(F)F)nc(N)n1` returned a z-score of 0.795.

For `COc1ccc(CC(=O)OCCN(C)C)cc1`, the z-score is 0.0321.

`CCOc1cc(C=C2C(=O)c3ccccc3C2=O)ccc1OCC(=O)Nc1ccc(C)cc1`: the z-score is -0.0379.

As for `Cc1cc(C)cc(NS(=O)(=O)c2cnc(Cl)c(Cl)c2)c1`, the z-score was -0.179.

In the case of `CC(=O)/C(=N/Nc1ccccc1C)N1CCOCC1`, the z-score is -0.117.

Consider `CCOC(=O)c1sc(NC(=O)CNC(=O)Cn2cnc3sc(C)c(C)c3c2=O)nc1C`, for which the z-score was 0.101.

In the case of `Cc1[nH]c2ccccc2c1C(=O)CN1CCC2(CC1)OCCO2`, the z-score was -0.0577.

As for `Cc1cc(Oc2ccccc2)nc(SCC(=O)Nc2ccccc2)n1`, the z-score worked out at 1.61.

`NC(=O)c1cc2n(n1)C(C(F)(F)F)CC(c1ccco1)N2` (centres undefined) displayed a z-score of 0.154.

On to `COc1ccc(-c2nc(CSCC(=O)NC3CCCc4ccccc43)c(C)o2)cc1OC` (centres undefined), for which the z-score stood at 0.0311.

As to `CNC(=O)Nc1nnc(C(C)(C)C)s1`, the z-score was -0.522.

On to `Cc1nn(C)c(C)c1NC(=O)c1ccnn1C`, for which the z-score is -0.0844.

Compound `Cc1cccc(Oc2ncnc3onc(C)c23)c1` yielded a z-score of 0.0845.

As to `Cn1c(NN)nc2sc3c(c2c1=O)CCC3`, the z-score was -0.0646.

For `COc1ccc(C(c2nnnn2Cc2cccs2)N2CCN(c3ccccc3F)CC2)cc1` (centres undefined), the z-score is 0.62.

`O=C(CSCc1ccccc1)Nc1ccc(S(=O)(=O)N2CCOCC2)cc1`: the z-score is -0.124.

Consider `Fc1ccc(Cn2c(-c3cscn3)nc3ccccc32)c(Cl)c1`, for which the z-score is -0.154.

`CC(C)CC(=O)Nc1nnn(C)n1` showed a z-score of 0.332.

In the case of `Cc1ccc(NC(=O)c2ccco2)cc1C`, the z-score amounted to 0.23.

On to `CCOC(=O)/C(=C\Nc1ccccc1C(F)(F)F)Sc1ncc(C(F)(F)F)cc1Cl`, for which the z-score is -0.191.

For `Cc1cccc(N(CC(=O)N2CCOCC2)S(C)(=O)=O)c1`, the z-score was -0.316.

Regarding `O=C(COC(=O)c1cc(-c2ccccc2Cl)nc2ccccc12)Nc1ncc(C(F)(F)F)cc1Cl`, the z-score was -0.65.

Consider `CC1=CCC2C(=O)N(CCc3c[nH]c4ccccc34)C(=O)C2C1` (centres undefined), for which the z-score is -0.147.

`O=C(/C=C/NCc1ccc(F)cc1)c1ccccc1`: the z-score is -0.0387.

On to `O=C(CNS(=O)(=O)c1ccccc1)OCc1cccc([N+](=O)[O-])c1`, for which the z-score was -0.557.

`CC1CCN(S(=O)(=O)c2ccc(NC(=O)Cc3cccs3)cc2)CC1` returned a z-score of 0.311.

Compound `COC(=O)c1ccccc1N/C=C/C(=O)c1ccc(Br)cc1` showed a z-score of 0.287.

As for `O=C(CSc1nnc(Nc2ccccc2F)s1)NCc1ccco1`, the z-score turned out to be 0.824.

Consider `CS(=O)(=O)N1CCc2cc(C(=O)O)ccc21`, for which the z-score was determined as 1.16.

For `Cn1c(SCC(=O)Nc2cccc3ccccc23)nc(O)cc1=O`, the z-score is -0.188.

Consider `Cc1ccc(-c2nnc(Nc3ccc4c(c3)OCO4)c3ccccc23)cc1S(=O)(=O)NCCO`, for which the z-score is -0.266.

For the compound `Cc1ccc(Nc2nc(CSc3nnc(-c4ccccc4C)n3C)cs2)cc1`, the z-score was -0.618.

As for `O=C(c1cccs1)c1cn(CC(=O)N2CCc3ccccc3C2)c2ccccc12`, the z-score is -0.134.

As for `COCCn1c(=S)[nH]c2cc(OC)c(OC)cc2c1=O`, the z-score was -0.0151.

As for `COc1ccc(CNC(=O)c2csc(Cc3ccc(OC)cc3)n2)cc1`, the z-score was -0.382.

For `CC(C(=O)O)n1c(C(F)(F)F)nc2ccccc21` (centres undefined), the z-score was 0.219.

In turn, `COc1cccc(-c2cc(C(=O)N/N=C/c3ccc(OC)c(COC(C)=O)c3)c3ccccc3n2)c1` came in with a z-score of 0.189.

In turn, `c1ccc(CCc2ccccc2-c2nc(-c3cccnc3)no2)cc1` gave a z-score of 0.0978.

For the compound `COc1cc(NC(=S)NCc2ccc(S(N)(=O)=O)cc2)c(OC)cc1Cl`, the z-score amounted to 0.196.

For the compound `CN(C)C(=O)c1c2c(nc3ccccc13)-c1ccccc1CC2`, the z-score was -0.675.

With `O=C(Nc1cccc2c1CCCC2)c1ccncc1`, the z-score was found to be 0.637.

For the compound `CCOC(=O)N1CCN(c2c(NC3CCN(Cc4ccccc4)CC3)c(=O)c2=O)CC1`, the z-score was -0.572.

Consider `COc1ccc(N2CCC(CNC(=S)Nc3cccc(OC)c3)C2)cc1` (centres undefined), for which the z-score is -0.0452.

Consider `COc1ccccc1C1C(C(C)=O)=C(O)C(=O)N1CCc1ccccc1` (centres undefined), for which the z-score is -1.28.

For the compound `CC(C)NCCCCOc1ccccc1-c1ccccc1`, the z-score is 0.151.

As for `O=C(Nc1ccncc1)C1CCCN(S(=O)(=O)c2cccc3cccnc23)C1` (centres undefined), the z-score is -0.00286.

Turning to `C=CCn1c(SCC(=O)O)nnc1-c1cccc(Cl)c1`, the z-score is -0.129.

Take `O=C(CN1CCN(Cc2ccccc2)CC1)N/N=C/C=C/c1ccco1`: the z-score is -0.481.

In the case of `CCOC(=O)/C(=C/c1ccc(OC)cc1)NC(=O)c1ccco1`, the z-score is -0.186.

For the compound `CC(=O)Nc1ccc(SCC(=O)Nc2ccccc2Oc2ccccc2)cc1`, the z-score is -0.775.

For the compound `Cc1ccc(-n2c(O)c(C=NC3CCS(=O)(=O)C3)c3ccccc3c2=O)cc1` (centres undefined), the z-score is -0.486.

Consider `CCOc1cccc(-c2nnc(SCC(=O)Nc3cccc(OC)c3)n2N)c1`, for which the z-score was determined as 0.0928.

In the case of `CCOC(=O)Nc1cc(C(=O)OC)ccc1C`, the z-score is -0.0572.

For the compound `COc1cc(OC)cc(C(=O)NC(=S)Nc2ccc3c4c(cccc24)CC3)c1`, the z-score amounted to 0.967.

For `NC(=O)c1c(NC(=O)CN2CCCC2)sc2c1CCCC2`, the z-score is -0.047.

Regarding `N/C(=N\OC(=O)Cc1cccs1)c1ccc([N+](=O)[O-])cc1`, the z-score was -0.185.

Regarding `Cc1cccc2cc(CN(Cc3cccnc3)C(=O)c3ccccc3F)c(Cl)nc12`, the z-score is -1.02.

As to `COC(=O)CC1C(=O)NCCN1C(=S)Nc1cc(C)cc(C)c1` (centres undefined), the z-score was -0.0164.

For the compound `O=C(CN1C(=O)c2cccc3cccc1c23)Nc1ccc2c(c1)OCO2`, the z-score is -0.349.

As to `O=C(N/N=C/c1ccccc1Cl)c1ccc(F)cc1`, the z-score is -0.645.

Compound `CCc1ccc(N2C(=O)CC(NNc3nc4ccccc4s3)C2=O)cc1` (centres undefined) displayed a z-score of 0.452.

Compound `O=S(=O)(NCCSc1ccc(Cl)cc1)c1ccc(F)cc1` returned a z-score of 0.0224.

On to `CCC1=NC(c2ccccc2)N(O)C1(C)C` (centres undefined), for which the z-score was -0.0296.

As for `Cc1cccc(NC(=O)CSc2nnc(CNC(=O)c3ccc(S(=O)(=O)N(C)C)cc3)n2-c2cccc(C)c2)c1`, the z-score was -0.337.

Regarding `O=C(CO/N=C/c1ccccc1O)NNC(=O)c1ccccc1Cl`, the z-score was -0.0285.

Compound `CNC(=O)c1nnc(Cc2ccc(Cl)cc2)o1` returned a z-score of 1.21.

For the compound `O=C(NCCc1ccc(O)cc1)c1ccc(Cl)cc1`, the z-score is -0.151.

For `CC(C)OC(=O)CSc1nnc(-c2cnccn2)n1-c1ccccc1`, the z-score was -0.352.

On to `Cc1ccc(C(=O)Oc2ccccc2N2C(=O)C3CCC(C)CC3C2=O)cc1` (centres undefined), for which the z-score is -0.265.
